Self-cleavage data for 167 variants are collected here from the RNAGym collection of RNA variant scans (doi:10.1093/nar/gkz1192).

The source gives no read counts; variants with many changes may rest on few reads.

The chains are these.
B1: CPEB3 Ribozyme (parent)
chain: UAACAGGGGGCCACAGCAGAAGCGUUCACGUCGCAGCCCCUGUCAGAUUCUGGUGAAUCUGCGAAUUCUGCUGUAUAUCUC

Variants of B1 are the subject of the series. Nature of the series: self-cleavage, relative activity (ratio to wild type); higher = more cleavage; in vitro, sequencing. In short, it runs like this: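 Relative activity compares each variant's cleaved/total read fraction with that of the unmutated ribozyme. To get these fractions, barcoded CPEB3 ribozyme libraries from rounds of error-prone PCR were transcribed with T7 RNA polymerase for 5 hours at 37°C and then given 15 min of DNase I treatment before EDTA was added. The RNAs were reverse transcribed with template switching and sequenced on Illumina, and DNA sequencing linked barcodes to variants. A minimum of 5 reads applied, and three batches were averaged.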
Take A21G U31C U80A: the self-cleavage was determined as 0.25.

On to A21U U31C A35G U43C C50U, for which the self-cleavage is 0.28.

For the variant A21U A28G U49A A64G U66A U67G, the self-cleavage came to 0.03.

Consider A21G U43A U60C U76A, for which the self-cleavage is 0.11.

In the case of A21U U51C U58C U76A, the self-cleavage is 0.11.

A21U U26A G70A U74C: the self-cleavage is 0.07.

For the variant A21G U66C U67C, the self-cleavage stood at 0.18.

Regarding A21G U54A U74G, the self-cleavage stood at 0.82.

In the case of A21U A28U A47G U76C, the self-cleavage came to 0.23.

In the case of A21U U31C U74C, the self-cleavage worked out at 0.51.

Turning to A21G U69A A75G, the self-cleavage was determined as 0.09.

As for A21U U41C U67A, the self-cleavage was found to be 0.37.

On to A21G U51A U54C A75U U78C, for which the self-cleavage was found to be 0.8.

Regarding A21G U41C U67C U80A, the self-cleavage worked out at 0.15.

On to A21U A35U A47G, for which the self-cleavage is 0.24.

With A21G U49C U69C U76A, the self-cleavage worked out at 0.09.

Turning to A21U U26C G36A C50U, the self-cleavage amounted to 0.18.

On to A21U U25A U60A U80C, for which the self-cleavage worked out at 0.57.

As for A21U U31A U67A U76C, the self-cleavage was 0.04.

On to A21G U51A C59A, for which the self-cleavage was determined as 0.13.

A21U U41A A75G: the self-cleavage worked out at 0.04.

Turning to A21G U60C U74C, the self-cleavage was 0.29.

With A21U U25A A35G U58C U80C, the self-cleavage was found to be 0.25.

In the case of A21G U54A U58C A64G, the self-cleavage came out at 0.15.

Regarding A21G U48A U69A, the self-cleavage was 0.1.

G22A A28U A57G U66G: the self-cleavage came to 0.11.

In the case of A21U A28G A64G A65G, the self-cleavage was 0.04.

Regarding A21U U25C A57G U67C U80C, the self-cleavage was found to be 0.13.

As for A21G U67C U72C, the self-cleavage was determined as 0.3.

In the case of A21G U66C U72A U80C, the self-cleavage was 1.19.

Regarding A21U U26A U49C A57G U67C, the self-cleavage is 0.03.

As for A21U U43G C62U, the self-cleavage amounted to 0.4.

With A21U U25C C44U U72C, the self-cleavage stood at 0.05.

Take A21U G70A U76C: the self-cleavage was 0.1.

For A21U U26C U31A U43C, the self-cleavage is 0.07.

Regarding A21U U51A U72A, the self-cleavage was 0.15.

As to A21U C39A A56U U60A A65G U67G, the self-cleavage is 0.06.

Turning to A21G U49C U76A, the self-cleavage is 0.27.

Take A21G U67C C71A U74C: the self-cleavage is 0.08.

In the case of G22A A35G U51A U54C C62U, the self-cleavage came out at 0.13.

Consider A21U U51C U72C, for which the self-cleavage worked out at 0.42.

As for A21U C27A A47U U49C, the self-cleavage is 0.13.

Take A21U U26C A56G U78C: the self-cleavage was 0.16.

In the case of A21G U41G U49A, the self-cleavage stood at 0.27.

On to A21U U25C U69C U78C, for which the self-cleavage came to 0.15.

Consider A21U U31C U54A A64U, for which the self-cleavage came to 0.11.

Consider A21U U31A A45G A56U U66C, for which the self-cleavage was determined as 0.1.

In the case of A21U A35U U78C, the self-cleavage amounted to 0.09.

As to A21G U43C A45U, the self-cleavage was 0.26.

For the variant A21G U43C U51A, the self-cleavage turned out to be 0.41.

With A21U U41C U58A, the self-cleavage worked out at 0.11.

Regarding A21U A56U U78C, the self-cleavage came out at 0.23.

On to A21G U43A U69A, for which the self-cleavage came to 0.2.

A21U U26A U41C C71G: the self-cleavage was 0.08.

Turning to A21G U41C U48C A65U U69A G73A, the self-cleavage was determined as 0.07.

On to A21U C29U G33A C38A U54A U67C U76A, for which the self-cleavage turned out to be 0.04.

On to A21U A35U U41A A57G, for which the self-cleavage came out at 0.35.

In the case of A21G U67C U76C, the self-cleavage came to 0.11.

Consider A21G U67C U76A, for which the self-cleavage amounted to 0.15.

Consider A21G U49A A56G, for which the self-cleavage was determined as 0.23.

In the case of A21G U60A U67C C68G, the self-cleavage came to 0.18.

For the variant A21U U60C U69A, the self-cleavage is 0.09.

Regarding A21U U43G A65G U67C U78A U80C, the self-cleavage amounted to 0.08.

As to A21U U26C U72C, the self-cleavage was 0.26.

On to A21G U60C A75G, for which the self-cleavage worked out at 0.12.

On to A21U U43A A56G U69C, for which the self-cleavage is 0.1.

With A21G U48C U49C, the self-cleavage stood at 0.18.

On to A21U A45G U80C, for which the self-cleavage was 0.12.

For A21G U51A C68U A75G, the self-cleavage worked out at 0.28.

Take A21G U43C U72G: the self-cleavage was 0.31.

With A21G U43C U72C, the self-cleavage is 0.35.

In the case of A21G U72G U74C, the self-cleavage is 0.45.

As for A21U A35G U74C, the self-cleavage is 0.68.

Consider A21U U26C U58C A64U, for which the self-cleavage was determined as 0.12.

On to A21U U43A U48C, for which the self-cleavage is 0.3.

For A21U U41G U60A, the self-cleavage stood at 0.18.

Take A21G U54A U69G: the self-cleavage is 0.37.

In the case of A21U C39U U41C, the self-cleavage was 0.43.

Regarding A21G U43C U58C, the self-cleavage came out at 0.26.

For the variant A21U U25A U26C, the self-cleavage is 0.45.

On to A21G U41C A56G U80A, for which the self-cleavage amounted to 0.57.

In the case of A21U U25C G46A U48C U49C G70A, the self-cleavage came to 0.05.

For A21G U43C U48C G53A U60A U69C, the self-cleavage came out at 0.16.

Turning to G22A A28U U41C A45C A56U A77G, the self-cleavage stood at 0.16.

A21G U41A U51A C68A: the self-cleavage was 0.18.

With A21U U41C U66C U72C U78C, the self-cleavage amounted to 0.17.

Consider A21U U25C C32U U43G U76C, for which the self-cleavage was 0.17.

For the variant A21G U41A A75G, the self-cleavage was 0.5.

Consider A21U A35G A47G U60C, for which the self-cleavage came to 0.39.

Take A21U A45U U49A: the self-cleavage amounted to 0.11.

Turning to A21U A35G A64U, the self-cleavage was 0.35.

In the case of A21U G36C U48A, the self-cleavage came out at 0.15.

With A21U C29A U43C, the self-cleavage was 0.12.

As for A21U U31A C44G, the self-cleavage was found to be 0.17.

Consider A21G U51G G55U, for which the self-cleavage is 0.42.

On to A21U U26A A28G U43C A64G, for which the self-cleavage stood at 0.14.

Turning to A21U U25A A45U G63A, the self-cleavage was 0.11.

Turning to A21G U41C A64U U72A, the self-cleavage came to 0.1.

As for A21U C23A U43A A45U A65G, the self-cleavage was determined as 0.15.

Consider A21U G30U U41C, for which the self-cleavage is 0.23.

For A21U U48C U49A, the self-cleavage worked out at 0.32.

Take A21U U41C U48C A57G U72C U76C: the self-cleavage worked out at 0.2.

A21U A28G U41A C59A: the self-cleavage is 0.09.

As for A21U U31G C38U A57G U58C U72C, the self-cleavage is 0.14.

In the case of A21G U31C U78A, the self-cleavage was determined as 0.16.

Take A21G U41C A45G G46A U49C: the self-cleavage stood at 0.38.

Regarding A21G U58C U67C, the self-cleavage is 0.28.

As for A21U U49C C50G C62U U78C, the self-cleavage was 0.05.

Regarding A21G U41A U43C, the self-cleavage is 0.09.

A21U G33A A56G: the self-cleavage came to 0.13.

As to A21U C23G A35G U78C, the self-cleavage was found to be 0.27.

Consider A21U U69A U78C, for which the self-cleavage was found to be 0.18.

Consider A21U A28G G61A, for which the self-cleavage worked out at 0.29.

Regarding A21U U31A U51C, the self-cleavage was 0.14.

A21G U43A A56U: the self-cleavage came out at 0.29.

In the case of A21G U41C U80C, the self-cleavage worked out at 0.71.

Turning to A21U A47G A56G, the self-cleavage was determined as 0.25.

With A21G U41C A45U U49C U72A, the self-cleavage was found to be 0.07.

For A21U U49C U78C, the self-cleavage is 0.3.

Consider A21U A35U G52A U54C U60C U69C A77G, for which the self-cleavage came out at 0.09.

Take A21U U25A G55A: the self-cleavage was found to be 0.09.

With A21U U26C U51A, the self-cleavage is 0.25.

On to A21G U41C U54C, for which the self-cleavage is 0.63.

Take A21U A56G U66C U80C: the self-cleavage is 0.14.

With A21G U67A C68A U80A, the self-cleavage worked out at 0.12.

With A21U C37U U43C, the self-cleavage is 0.37.

Take A21U U26C C39U U54C C62U A75U: the self-cleavage was found to be 0.12.

For A21U G33C A64U C68U, the self-cleavage was found to be 0.15.

Turning to A21U C38A A45G U69C, the self-cleavage was 0.1.

Take A21U A35G A56G U78C: the self-cleavage was determined as 1.18.

For the variant A21G U51G A65G, the self-cleavage came out at 0.18.

A21G U43A U72G: the self-cleavage amounted to 0.55.

On to A21U G24A U41A A64G U69A, for which the self-cleavage amounted to 0.03.

As to A21G U69C A75G, the self-cleavage was determined as 0.3.

For the variant A21G U60A U67C, the self-cleavage came to 0.22.

In the case of A21G U41A A64U A75G, the self-cleavage was 0.1.

Consider A21U C23U U31C U51A C62U, for which the self-cleavage worked out at 0.11.

As for A21G U49C U54C, the self-cleavage was 0.13.

Take A21U A28C C68G U72C: the self-cleavage worked out at 0.05.

With A21U A47G G53A U60A U67A, the self-cleavage was determined as 0.08.

Turning to A21U A28U A56G A64G U80A, the self-cleavage is 0.08.

Turning to A21G U43C U69C U72C, the self-cleavage stood at 0.17.

Consider A21U U26C C81U, for which the self-cleavage turned out to be 0.13.

Take A21G U43A U67C C68G: the self-cleavage was 0.12.

A21U U69C U72C: the self-cleavage was found to be 0.13.

Take A21U U43C A56G U58C A77U: the self-cleavage was found to be 0.05.

Take A21G U48C U76A: the self-cleavage came to 0.25.

For A21G U41C U66C U69A, the self-cleavage came out at 0.19.

A21G U54A U58C A77U: the self-cleavage was 0.18.

With A21U C34U U72A, the self-cleavage was found to be 0.08.

As to A21U U25C A47G A65G G70A A75U, the self-cleavage stood at 0.03.

On to A21U U43A U54C, for which the self-cleavage was found to be 0.45.

As for A21U A64U A65G U80A, the self-cleavage was found to be 0.03.

As to A21U A35G U60A, the self-cleavage was 0.64.

A21U G36C U51G C81U: the self-cleavage was 0.1.

For A21G U72A U80C, the self-cleavage stood at 0.7.

Consider A21G U49C A77C, for which the self-cleavage stood at 0.09.

Take G22A A28C U51G: the self-cleavage turned out to be 0.14.

With A21G U76C U80C, the self-cleavage was 0.86.

Take A21G U43C U51A A64G U69C U72C: the self-cleavage worked out at 0.07.

A21G U43C U67C U74C U78C: the self-cleavage came to 0.06.

A21G U43C A65G U69A: the self-cleavage was 0.26.

In the case of A21G U49C U67A U80C, the self-cleavage worked out at 0.4.

In the case of A21U A65G U80A, the self-cleavage is 0.36.

For the variant A21G U51A U58C U60C A65C, the self-cleavage stood at 0.15.

With A21U G33A U66A, the self-cleavage amounted to 0.06.

On to A21G U60C U67A A77U U78C, for which the self-cleavage was determined as 0.11.
